In PubChem BioAssay AID1478 (National Center for Advancing Translational Sciences (NCATS), 2009):
Among all 200,000 compounds or so, about 860 (0.43%) were called active. Inconclusive means that the source gave no clear call. Such entries were picked first, then a sample of the others. Calls come from the whole dose curve; as a rule, active = well fitted inhibition curve with a large enough effect; inconclusive = small, poorly fitted or top-dose-only effect; inactive = flat fitted curve, though single readings scatter. Potencies beside an inconclusive call are fits to weak or partial responses and may not hold up.
Note: nearly all actives have a fitted effect of over 40% in size.
Potency is the fitted concentration of half-maximal effect; tags give direction and shape of the fitted curve.
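Throughout, for max response, negative = inhibition: plate controls were neutral wells for no effect and buffer without enzyme for full effect.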

What follows are molecules tested against Cruzipain (Trypanosoma cruzi) (UniProt P25779) (assay: qHTS Assay for Promiscuous and Specific Inhibitors of Cruzain (with detergent)). Details: purified cruzain, Z-FR-AMC fluorescence, 0.01% Triton.
Chain of UniProt P25779 (P25779 whole entry, looked up): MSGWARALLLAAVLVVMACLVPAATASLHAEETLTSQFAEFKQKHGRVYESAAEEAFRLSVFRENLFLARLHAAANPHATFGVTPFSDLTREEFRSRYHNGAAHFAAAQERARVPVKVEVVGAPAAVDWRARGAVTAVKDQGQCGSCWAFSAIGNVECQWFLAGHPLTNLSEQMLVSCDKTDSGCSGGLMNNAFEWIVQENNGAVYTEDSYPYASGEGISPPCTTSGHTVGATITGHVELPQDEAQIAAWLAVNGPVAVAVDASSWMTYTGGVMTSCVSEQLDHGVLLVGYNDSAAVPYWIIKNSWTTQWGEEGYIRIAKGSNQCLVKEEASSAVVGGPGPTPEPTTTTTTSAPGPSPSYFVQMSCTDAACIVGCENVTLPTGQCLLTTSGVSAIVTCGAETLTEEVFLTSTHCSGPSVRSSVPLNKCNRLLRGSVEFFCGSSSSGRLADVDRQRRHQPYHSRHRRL
Method in brief: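 In this qHTS format, compounds are incubated with 1.5 nM cruzain for 15 min at room temperature before 2 uM Z-FR-AMC is added. Release of AMC is followed at 360/450 nm, and progress is taken as the 60 s fluorescence difference.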
For `NC(Cc1cc(O)c(O)cc1O)C(=O)O` (stereo not drawn), the Potency was inconclusive: 25.1 µM [inhibitor, single point]. With `Cc1ccccc1Nc1c(-c2cc(Br)ccc2F)nc2ccccn12` the max response, negative = inhibition was inactive: -0.684%. In the case of `NC(N)=Nc1nc(CCN2C(=O)c3ccccc3C2=O)cs1`, the Potency is reported as inconclusive: 20 µM [inhibitor, single point]. With `c1nnc(NCNc2nncs2)s1` the max response, negative = inhibition was inactive: -0.816%. With `Cc1cccc(C)c1OCCCn1c(CCNC(=O)C2CCCCC2)nc2ccccc21` the Potency was active: 3.55 µM. For `CCCCCn1c(CCNC(=O)c2ccc(F)cc2)nc2ccccc21`, the Potency was active: 4.47 µM. In the case of `Cc1cc(C(=O)N2CCN(c3cccc(C)c3C)CC2)c2c(C)nn(-c3ccccc3)c2n1`, the max response, negative = inhibition is reported as inactive: -5.44%. For `O=C(NC(NC(=S)Nc1ccccc1)C(Cl)(Cl)Cl)c1cccc(Cl)c1` (stereo not drawn), the Potency was inconclusive: 2.24 µM [inhibitor, full curve]. With `COc1nc(C#N)nc(N(C)C)n1` the Potency was active: 10 µM. `CCc1ccc(NC(=O)CS(=O)CC(=O)Nc2ccc(F)cc2F)cc1` (stereo not drawn) was tested, and the Potency was inconclusive: 31.6 µM [inhibitor, single point]. In the case of `N#CC1=C2SCN(C3CCCCC3)CN2C(=O)CC1c1ccc(Cl)cc1` (stereo not drawn), the Potency is reported as inconclusive: 28.2 µM [inhibitor, single point]. For `O=c1c(O)c(-c2cc(O)c(O)c(O)c2)oc2cc(O)cc(O)c12`, the Potency was inconclusive: 28.2 µM [inhibitor, single point]. For `Cc1c(CC(=O)NCc2ccc(F)cc2)c(=O)oc2cc(O)c(Cl)cc12`, the Potency was inconclusive: 25.1 µM [inhibitor, single point]. `C#CCOCCOCCOCCNc1nc(N2CCN(C(=O)[C@H]([C@@H](C)CC)n3cc(CCCN=C(N)N)nn3)CC2)nc(N2CCN(C(=O)[C@H](Cc3ccc(O)cc3)n3cc(CCO)nn3)CC2)n1` was tested, and the Potency was inconclusive: 28.2 µM [inhibitor, single point]. In the case of `O=C(COc1ccc(/C=N/NC(=O)c2cc3ccccc3o2)cc1Cl)Nc1ccccc1`, the Potency is reported as active: 22.4 µM. With `COc1cccc(OC)c1-c1nn2c(-c3cc(-c4ccccc4)n[nH]3)nnc2s1` the Potency was active: 1.78 µM. `Cc1ccc(-c2c3c([nH]c(=S)c2C#N)CCCC3)o1` was tested, and the Potency was inconclusive: 28.2 µM [inhibitor, single point]. `CCn1cc[n+](C)c1P(c1ccccc1)c1ccccc1` was tested, and the Potency was inconclusive: 31.6 µM [inhibitor, single point]. In the case of `O=C(NC1=NCCS1)c1ccc(-c2ccc(Cl)cc2)o1`, the Potency is reported as inconclusive: 22.4 µM [inhibitor, single point]. With `COc1cccc(C(=O)NCC(=O)OCC(=O)c2ccccc2)c1` the Potency was inconclusive: 28.2 µM [inhibitor, single point]. With `CC1(OC(=O)c2ccco2)C(=O)C2=COC(C3CC3)=CC2=C(Br)C1=O` (stereo not drawn) the max response, negative = inhibition was inactive: 2.93%. In the case of `C#CCOCCOCCOCCNc1nc(N2CCN(C(=O)[C@H](CCCCN)n3cc(CCCC)nn3)CC2)nc(N2CCN(C(=O)[C@H](Cc3ccc(O)cc3)n3cc(CCO)nn3)CC2)n1`, the Potency is reported as inconclusive: 31.6 µM [inhibitor, single point]. With `CCN(CC)CC(=O)Nc1ccc(-c2nc3cc(NC(=O)CN(CC)CC)ccc3o2)cc1` the Potency was inconclusive: 20 µM [inhibitor, single point]. With `Cc1c(Cl)cccc1-c1ccc(CNCCSc2nnnn2-c2ccccc2)o1` the Potency was active: 12.6 µM. In the case of `N#Cc1nc(-c2cccc(Cl)c2)oc1NCc1cccnc1`, the Potency is reported as inconclusive: 39.8 µM [inhibitor, single point]. In the case of `CCCN(CCC)C(=O)CC(c1ccc(F)cc1)c1ccco1` (stereo not drawn), the Potency is reported as inconclusive: 31.6 µM [inhibitor, single point]. For `N#CCCn1c(=O)c(-c2ccc(F)cc2)nc2cnc(N3CCNCC3)nc21`, the Potency was inconclusive: 31.6 µM [inhibitor, single point]. For `COc1ccc(NC(=O)COc2ccc(/C=N/NC(=O)c3cccnc3)cc2OC)cc1`, the Potency was inconclusive: 39.8 µM [inhibitor, single point]. `N#Cc1nc(-c2ccc(OCc3ccccc3)cc2)oc1N1CCOCC1` was tested, and the Potency was inconclusive: 25.1 µM [inhibitor, single point]. With `Cc1ccc(NC(=O)N2CCN(C)c3ncccc32)cc1C` the max response, negative = inhibition was inactive: 0.636%. For `COc1ccc2cc(CNc3ccc(C)cc3)c(=O)n(CC(=O)Nc3cccc(C(F)(F)F)c3)c2c1`, the max response, negative = inhibition was inactive: -3.43%. For `COc1ccc(/C=C/C(=O)N/C(=C\c2ccco2)C(=O)NCCc2nc3ccccc3[nH]2)cc1`, the Potency was inconclusive: 28.2 µM [inhibitor, single point]. `CCOCCCn1c(=N)c(C(=O)NC(C)c2ccccc2)cc2c(=O)n3cccc(C)c3nc21` (stereo not drawn) was tested, and the Potency was inconclusive: 31.6 µM [inhibitor, single point]. For `O=C1C(Cl)=C(NC2CCc3ccccc32)C(=O)c2ncccc21` (stereo not drawn), the Potency was inconclusive: 22.4 µM [inhibitor, single point]. `Cc1nc(SCc2nc3ccccc3[nH]2)c2oc3ccccc3c2n1` was tested, and the Potency was inconclusive: 7.94 µM [inhibitor, partial curve]. `CCCCc1nc(NCCNC(=O)c2ccccc2)c(C#N)c2c1CSC(C)(C)C2` was tested, and the Potency was inconclusive: 31.6 µM [inhibitor, single point]. With `Cc1nc2c(C(=O)NCCc3ccc(Cl)cc3)c[nH]n2c(=O)c1Cc1ccc(Cl)cc1` the Potency was inconclusive: 15.8 µM [inhibitor, partial curve]. `CN1CCN(c2ncc3nc(-c4ccccc4)c(=O)n(C)c3n2)CC1` was tested, and the Potency was inconclusive: 28.2 µM [inhibitor, single point]. `CCOC(=O)c1cc2c(C(F)(F)F)cc(-c3ccccc3)nc2o1` was tested, and the Potency was inconclusive: 31.6 µM [inhibitor, single point]. For `NC(N)=Nc1nc(CSCC/C(N)=N\S(N)(=O)=O)cs1`, the Potency was active: 25.1 µM. `CN(C)c1ccc(-c2cc(NCc3cccnc3)ncn2)cc1` was tested, and the Potency was inconclusive: 28.2 µM [inhibitor, single point]. With `Fc1ccc(-c2cc3nc(-c4ccccc4)cc(N4CCOCC4)n3n2)cc1` the Potency was inconclusive: 31.6 µM [inhibitor, single point]. For `O=C(NCC(c1ccc2c(c1)OCO2)N1CCN(c2ccccc2)CC1)c1ccccc1F` (stereo not drawn), the max response, negative = inhibition was inactive: 2.04%. For `COc1ccccc1-c1nnc(Nc2nc3c(OC)cccc3s2)o1`, the Potency was inconclusive: 20 µM [inhibitor, single point]. With `CCn1c(=N)c(C(=O)NCc2cccnc2)cc2c(=O)n3cccc(C)c3nc21` the Potency was inconclusive: 31.6 µM [inhibitor, single point]. With `CC(C)OCCCN(Cc1ccco1)C(=O)c1cc2c(s1)-c1ccccc1OC2` the Potency was inconclusive: 28.2 µM [inhibitor, single point]. For `O=C(Nc1cccc(Cl)c1)c1c(NC(=O)C(F)(F)F)sc2c1CCCC2`, the Potency was active: 25.1 µM. `CC(=O)Nc1ccccc1-c1nc2ccccc2n(C(C)C(=O)Nc2cc(Cl)ccc2C)c1=O` (stereo not drawn) was tested, and the max response, negative = inhibition was inactive: -1.91%. `COc1ccc(C(=S)N2CCCCCC2)cc1` was tested, and the Potency was active: 14.1 µM. With `Cc1sc2nc(SCc3nc(-c4ccccc4)no3)n(-c3ccccc3)c(=O)c2c1C` the max response, negative = inhibition was inactive: -2.6%. `CCCc1nc2sc(C(=O)OCC)c(N)c2c2c1COC(C)(C)C2` was tested, and the Potency was inconclusive: 35.5 µM [inhibitor, single point]. `S=C(N/N=C1\C2CN3CCN(C2)CC1(c1ccccc1)C3)Nc1ccccc1` was tested, and the Potency was inconclusive: 14.1 µM [inhibitor, partial curve]. For `CCCCOCCCNc1ncnc2c1[nH]c1ccccc12`, the Potency was inconclusive: 28.2 µM [inhibitor, partial curve]. In the case of `O=C(CSc1nc2ccccc2n1Cc1cccc(F)c1)NCc1ccccc1`, the max response, negative = inhibition is reported as inactive: -4.19%. `O=C(CC(c1cccs1)N1Cc2ccccc2C1=O)Nc1ccc(F)cc1` (stereo not drawn) was tested, and the max response, negative = inhibition was inactive: -0.396%. In the case of `CCOCCCNC(=S)NCCCNc1nc2cc3c(cc2cc1C#N)OCO3`, the Potency is reported as inconclusive: 20 µM [inhibitor, single point]. With `O=S(=O)(c1ccc(NC(=S)Nc2ccc(OC(F)F)cc2)cc1)N1CCOCC1` the max response, negative = inhibition was inactive: -6.37%. With `Cc1nc(S(=O)(=O)c2ccc(Cl)cc2)c(NCc2ccccc2)o1` the Potency was inconclusive: 35.5 µM [inhibitor, single point]. For `Cc1cccc(-n2ncc3c(NNC(=O)c4ccccc4Cl)ncnc32)c1`, the max response, negative = inhibition was inactive: 0.0971%. In the case of `NC1=NC2(CCCCC2)N=C(Nc2ccc(Br)cc2)N1`, the Potency is reported as active: 28.2 µM. `Clc1cccc(CSc2nnc(C3CCNCC3)o2)c1` was tested, and the max response, negative = inhibition was inactive: -1.04%. In the case of `Cc1cc(NS(=O)(=O)c2ccc(NC(=S)NC(=O)c3ccc(C(C)(C)C)cc3)cc2)no1`, the Potency is reported as inconclusive: 22.4 µM [inhibitor, single point]. In the case of `CCCCCCCCNC(=O)/C(C#N)=C/c1ccccc1[N+](=O)[O-]`, the Potency is reported as inconclusive: 25.1 µM [inhibitor, single point]. For `Clc1ccc(/C=N/c2c(-c3ccco3)nc3ccccn23)cc1`, the Potency was inconclusive: 28.2 µM [inhibitor, single point]. `CSc1nsc(/C=C/Nc2cccc(Cl)c2)c1C#N` was tested, and the max response, negative = inhibition was inactive: -6.29%. With `CC(C)CCNC(=O)c1ccc2c(SCC(=O)O)c3c(nc2c1)CCCC3` the Potency was inconclusive: 22.4 µM [inhibitor, single point]. For `COc1ccc(NC(=O)C(=O)NCCc2csc(-c3ccc(Cl)cc3)n2)cc1OC`, the max response, negative = inhibition was inactive: -1.36%. `O=C(Cn1ncc2ccsc2c1=O)N1CCN(c2ccccc2F)CC1` was tested, and the max response, negative = inhibition was inactive: -0.738%.
